Laboratory results reported in patent US20220257974A1, “PHOTOBIOMODULATION METHOD AND SYSTEM FOR INDUCING ACTIVITY OF BRAINDERIVED NERVE GROWTH FACTOR IN HIPPOCAMPAL TISSUE” (INDUSTRY ACADEMIC COOPERATION FOUNDATION KEIMYUNG UNIVERSITY, priority 2019, published 2022).

System: glutathione peroxidase (GPx)
Assay type: cell-based, mice
Conditions: organotypic hippocampal slices, after H2O2-induced oxidative stress
Source text: The used […] BDNF, forward [NT], and reverse [NT]; glutathione peroxidase (GPx), forward [NT], and reverse [NT]; superoxide dismutasee 1 (SOD1), forward [NT], and reverse [NT]; glutathione reductase (GR), forward [NT], and reverse [NT]; and h-GAPDH transfer [NT], reverse [NT]. All experiments were implemented three times.

SMILES: OO [H2O2]
- GPx expression (mRNA): expression was reduced
